Assay results as given in paper PMC12820563.
The list shows a part of the results. The list includes weakly bound sequences.

Molecular target: T1, MBP-FoxP3dN (UniProt Q99JB6)
T1 sequence: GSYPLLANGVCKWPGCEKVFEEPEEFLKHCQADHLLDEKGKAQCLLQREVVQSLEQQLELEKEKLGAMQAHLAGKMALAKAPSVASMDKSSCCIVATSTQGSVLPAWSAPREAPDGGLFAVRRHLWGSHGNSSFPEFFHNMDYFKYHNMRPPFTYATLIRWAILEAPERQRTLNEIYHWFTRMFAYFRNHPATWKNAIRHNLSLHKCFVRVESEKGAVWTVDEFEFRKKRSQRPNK
Assay: PD-seq (MBP pull-down with sequencing)
Settings: 20 mM Tris-HCl pH 7.5, 100 mM NaCl, 1.5 mM MgCl2, 0.4 uM protein, 0.1 uM dsDNA library, 30 min, room temperature, amylose pull-down; high values mean tight binding; double strand, one strand shown

Question: With “GATGATTGTTCTCCCAGCTGATGAATTGCGAGGGTCGAGTAAACAAATTTTCCTAATCTTTCTGTTCAAGCGCCATCTAC” as the sequence, how does the binding signal (RPM ratio (pull-down/input)) read?
Answer: The binding signal (RPM ratio (pull-down/input)) was 0.611.

Question: Which binding signal (RPM ratio (pull-down/input)) does the source give for “GATGATTGTTCTCCCAGCTGATGAATTGGGAAAATCGAGTAAACAAATTTTCCTAATCTTTCTGTTCAAGCGCCATCTAC” here?
Answer: The binding signal (RPM ratio (pull-down/input)) was 0.17.

Question: For “GATGATTGTTCTCCCAGCTGATGAATTCTGCCCCTCGAGTAAACAAATTTTCCTAATCTTTCTGTTCAAGCGCCATCTAC”, which binding signal (RPM ratio (pull-down/input)) is on record?
Answer: Its binding signal (RPM ratio (pull-down/input)) is 1.72.

Question: For “GATGATTGTTCTCCCAGCTGATGAATTACGAGGATCGAGTAAACAAATTTTCCTAATCTTTCTGTTCAAGCGCCATCTAC”, which binding signal (RPM ratio (pull-down/input)) is on record?
Answer: The binding signal (RPM ratio (pull-down/input)) was 0.276.

Question: Which binding signal (RPM ratio (pull-down/input)) does the source give for “GATGATTGTTCTCCCAGCTGATGAATTCGCGAACTCGAGTAAACAAATTTTCCTAATCTTTCTGTTCAAGCGCCATCTAC” here?
Answer: The binding signal (RPM ratio (pull-down/input)) was 0.241.

Question: Which binding signal (RPM ratio (pull-down/input)) does the source give for “GATGATTGTTCTCCCAGCTGATGAATTGTTATTCTCGAGTAAACAAATTTTCCTAATCTTTCTGTTCAAGCGCCATCTAC” here?
Answer: Its binding signal (RPM ratio (pull-down/input)) is 5.18.

Question: “GATGATTGTTCTCCCAGCTGATGAATTAAGCGCATCGAGTAAACAAATTTTCCTAATCTTTCTGTTCAAGCGCCATCTAC” was tested. Which binding signal (RPM ratio (pull-down/input)) did it give?
Answer: Its binding signal (RPM ratio (pull-down/input)) is 1.44.

Question: How did the binding signal (RPM ratio (pull-down/input)) turn out when “GATGATTGTTCTCCCAGCTGATGAATTAGGGGTATCGAGTAAACAAATTTTCCTAATCTTTCTGTTCAAGCGCCATCTAC” was run?
Answer: The binding signal (RPM ratio (pull-down/input)) was 0.773.

Question: With “GATGATTGTTCTCCCAGCTGATGAATTTCGGATCTCGAGTAAACAAATTTTCCTAATCTTTCTGTTCAAGCGCCATCTAC” as the sequence, how does the binding signal (RPM ratio (pull-down/input)) read?
Answer: The binding signal (RPM ratio (pull-down/input)) was 0.293.

Question: Which binding signal (RPM ratio (pull-down/input)) does the source give for “GATGATTGTTCTCCCAGCTGATGAATTATAGTCATCGAGTAAACAAATTTTCCTAATCTTTCTGTTCAAGCGCCATCTAC” here?
Answer: The binding signal (RPM ratio (pull-down/input)) was 0.621.

Question: Which binding signal (RPM ratio (pull-down/input)) does the source give for “GATGATTGTTCTCCCAGCTGATGAATTGGGCGCGTCGAGTAAACAAATTTTCCTAATCTTTCTGTTCAAGCGCCATCTAC” here?
Answer: Its binding signal (RPM ratio (pull-down/input)) is 1.23.

Question: Which binding signal (RPM ratio (pull-down/input)) does the source give for “GATGATTGTTCTCCCAGCTGATGAATTAATAAGATCGAGTAAACAAATTTTCCTAATCTTTCTGTTCAAGCGCCATCTAC” here?
Answer: Its binding signal (RPM ratio (pull-down/input)) is 0.21.

Question: “GATGATTGTTCTCCCAGCTGATGAATTAAATGCTTCGAGTAAACAAATTTTCCTAATCTTTCTGTTCAAGCGCCATCTAC” was tested. Which binding signal (RPM ratio (pull-down/input)) did it give?
Answer: Its binding signal (RPM ratio (pull-down/input)) is 1.2.

Question: For “GATGATTGTTCTCCCAGCTGATGAATTCTAATGATCGAGTAAACAAATTTTCCTAATCTTTCTGTTCAAGCGCCATCTAC”, which binding signal (RPM ratio (pull-down/input)) is on record?
Answer: The binding signal (RPM ratio (pull-down/input)) was 0.643.

Question: With “GATGATTGTTCTCCCAGCTGATGAATTCTACCGTTCGAGTAAACAAATTTTCCTAATCTTTCTGTTCAAGCGCCATCTAC” as the sequence, how does the binding signal (RPM ratio (pull-down/input)) read?
Answer: The binding signal (RPM ratio (pull-down/input)) was 0.37.

Question: How did the binding signal (RPM ratio (pull-down/input)) turn out when “GATGATTGTTCTCCCAGCTGATGAATTATATATCTCGAGTAAACAAATTTTCCTAATCTTTCTGTTCAAGCGCCATCTAC” was run?
Answer: Its binding signal (RPM ratio (pull-down/input)) is 0.993.

Question: For “GATGATTGTTCTCCCAGCTGATGAATTTAAAGTTTCGAGTAAACAAATTTTCCTAATCTTTCTGTTCAAGCGCCATCTAC”, which binding signal (RPM ratio (pull-down/input)) is on record?
Answer: The binding signal (RPM ratio (pull-down/input)) was 0.312.

Question: With “GATGATTGTTCTCCCAGCTGATGAATTTAGGAAGTCGAGTAAACAAATTTTCCTAATCTTTCTGTTCAAGCGCCATCTAC” as the sequence, how does the binding signal (RPM ratio (pull-down/input)) read?
Answer: Its binding signal (RPM ratio (pull-down/input)) is 0.234.

Question: Which binding signal (RPM ratio (pull-down/input)) does the source give for “GATGATTGTTCTCCCAGCTGATGAATTAAACTGCTCGAGTAAACAAATTTTCCTAATCTTTCTGTTCAAGCGCCATCTAC” here?
Answer: The binding signal (RPM ratio (pull-down/input)) was 0.298.

Question: “GATGATTGTTCTCCCAGCTGATGAATTGATAGTATCGAGTAAACAAATTTTCCTAATCTTTCTGTTCAAGCGCCATCTAC” was tested. Which binding signal (RPM ratio (pull-down/input)) did it give?
Answer: Its binding signal (RPM ratio (pull-down/input)) is 1.06.

Question: Which binding signal (RPM ratio (pull-down/input)) does the source give for “GATGATTGTTCTCCCAGCTGATGAATTTTCCCGGTCGAGTAAACAAATTTTCCTAATCTTTCTGTTCAAGCGCCATCTAC” here?
Answer: The binding signal (RPM ratio (pull-down/input)) was 0.13.

Question: Which binding signal (RPM ratio (pull-down/input)) does the source give for “GATGATTGTTCTCCCAGCTGATGAATTTAGGGAATCGAGTAAACAAATTTTCCTAATCTTTCTGTTCAAGCGCCATCTAC” here?
Answer: The binding signal (RPM ratio (pull-down/input)) was 0.316.

Question: Which binding signal (RPM ratio (pull-down/input)) does the source give for “GATGATTGTTCTCCCAGCTGATGAATTTCGTCGTTCGAGTAAACAAATTTTCCTAATCTTTCTGTTCAAGCGCCATCTAC” here?
Answer: Its binding signal (RPM ratio (pull-down/input)) is 0.9.

Question: For “GATGATTGTTCTCCCAGCTGATGAATTTAGAAACTCGAGTAAACAAATTTTCCTAATCTTTCTGTTCAAGCGCCATCTAC”, which binding signal (RPM ratio (pull-down/input)) is on record?
Answer: Its binding signal (RPM ratio (pull-down/input)) is 0.679.

Question: For “GATGATTGTTCTCCCAGCTGATGAATTGGGGGTCTCGAGTAAACAAATTTTCCTAATCTTTCTGTTCAAGCGCCATCTAC”, which binding signal (RPM ratio (pull-down/input)) is on record?
Answer: The binding signal (RPM ratio (pull-down/input)) was 0.826.

Question: Which binding signal (RPM ratio (pull-down/input)) does the source give for “GATGATTGTTCTCCCAGCTGATGAATTTTCCAGTTCGAGTAAACAAATTTTCCTAATCTTTCTGTTCAAGCGCCATCTAC” here?
Answer: Its binding signal (RPM ratio (pull-down/input)) is 0.212.

Question: Which binding signal (RPM ratio (pull-down/input)) does the source give for “GATGATTGTTCTCCCAGCTGATGAATTAGGCGCATCGAGTAAACAAATTTTCCTAATCTTTCTGTTCAAGCGCCATCTAC” here?
Answer: Its binding signal (RPM ratio (pull-down/input)) is 1.59.

Question: “GATGATTGTTCTCCCAGCTGATGAATTTAAGCACTCGAGTAAACAAATTTTCCTAATCTTTCTGTTCAAGCGCCATCTAC” was tested. Which binding signal (RPM ratio (pull-down/input)) did it give?
Answer: The binding signal (RPM ratio (pull-down/input)) was 0.518.

Question: For “GATGATTGTTCTCCCAGCTGATGAATTTACATCATCGAGTAAACAAATTTTCCTAATCTTTCTGTTCAAGCGCCATCTAC”, which binding signal (RPM ratio (pull-down/input)) is on record?
Answer: The binding signal (RPM ratio (pull-down/input)) was 0.953.

Question: How did the binding signal (RPM ratio (pull-down/input)) turn out when “GATGATTGTTCTCCCAGCTGATGAATTCTAAACATCGAGTAAACAAATTTTCCTAATCTTTCTGTTCAAGCGCCATCTAC” was run?
Answer: Its binding signal (RPM ratio (pull-down/input)) is 1.61.

Question: How did the binding signal (RPM ratio (pull-down/input)) turn out when “GATGATTGTTCTCCCAGCTGATGAATTGACTCTCTCGAGTAAACAAATTTTCCTAATCTTTCTGTTCAAGCGCCATCTAC” was run?
Answer: Its binding signal (RPM ratio (pull-down/input)) is 0.425.

Question: With “GATGATTGTTCTCCCAGCTGATGAATTCTTATGGTCGAGTAAACAAATTTTCCTAATCTTTCTGTTCAAGCGCCATCTAC” as the sequence, how does the binding signal (RPM ratio (pull-down/input)) read?
Answer: Its binding signal (RPM ratio (pull-down/input)) is 0.32.

Question: With “GATGATTGTTCTCCCAGCTGATGAATTAATTTGTTCGAGTAAACAAATTTTCCTAATCTTTCTGTTCAAGCGCCATCTAC” as the sequence, how does the binding signal (RPM ratio (pull-down/input)) read?
Answer: Its binding signal (RPM ratio (pull-down/input)) is 3.91.

Question: “GATGATTGTTCTCCCAGCTGATGAATTGCCGAGGTCGAGTAAACAAATTTTCCTAATCTTTCTGTTCAAGCGCCATCTAC” was tested. Which binding signal (RPM ratio (pull-down/input)) did it give?
Answer: The binding signal (RPM ratio (pull-down/input)) was 0.34.

Question: How did the binding signal (RPM ratio (pull-down/input)) turn out when “GATGATTGTTCTCCCAGCTGATGAATTGATGGCATCGAGTAAACAAATTTTCCTAATCTTTCTGTTCAAGCGCCATCTAC” was run?
Answer: Its binding signal (RPM ratio (pull-down/input)) is 1.16.

Question: For “GATGATTGTTCTCCCAGCTGATGAATTGGGCCTATCGAGTAAACAAATTTTCCTAATCTTTCTGTTCAAGCGCCATCTAC”, which binding signal (RPM ratio (pull-down/input)) is on record?
Answer: Its binding signal (RPM ratio (pull-down/input)) is 1.58.

Question: For “GATGATTGTTCTCCCAGCTGATGAATTGTATACTTCGAGTAAACAAATTTTCCTAATCTTTCTGTTCAAGCGCCATCTAC”, which binding signal (RPM ratio (pull-down/input)) is on record?
Answer: Its binding signal (RPM ratio (pull-down/input)) is 3.98.

Question: With “GATGATTGTTCTCCCAGCTGATGAATTAACCGATTCGAGTAAACAAATTTTCCTAATCTTTCTGTTCAAGCGCCATCTAC” as the sequence, how does the binding signal (RPM ratio (pull-down/input)) read?
Answer: Its binding signal (RPM ratio (pull-down/input)) is 0.251.

Question: How did the binding signal (RPM ratio (pull-down/input)) turn out when “GATGATTGTTCTCCCAGCTGATGAATTTGAATCTTCGAGTAAACAAATTTTCCTAATCTTTCTGTTCAAGCGCCATCTAC” was run?
Answer: Its binding signal (RPM ratio (pull-down/input)) is 0.603.

Question: How did the binding signal (RPM ratio (pull-down/input)) turn out when “GATGATTGTTCTCCCAGCTGATGAATTGCTGATATCGAGTAAACAAATTTTCCTAATCTTTCTGTTCAAGCGCCATCTAC” was run?
Answer: The binding signal (RPM ratio (pull-down/input)) was 0.862.
